Test results published in PubChem BioAssay AID652104 (National Center for Advancing Translational Sciences (NCATS), 2013).
The whole screen tested about 410,000 compounds, of which about 7,200 (1.8%) were called active. Inconclusive means that the source gave no clear call. Such entries were picked first, then a sample of the others. Calls come from the whole dose curve; as a rule, active = well fitted activation curve with a large enough effect; inconclusive = small, poorly fitted or top-dose-only effect, or another doubt; inactive = no such curve, though single readings can be large or run the other way. A potency beside an inconclusive call is a rough fit, not a confirmed value.

assay: qHTS of TDP-43 Inhibitors; details: TDP-43 expressing yeast growth rescue, BacTiter-Glo, 24 h; growth rescue (activation): at 46.1 µM (top of the series) unless noted; note: nearly all actives have a fitted effect of over 50% in size; for growth rescue (activation): % of control where 0% means no effect
Outline: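 Cell-based yeast growth screen: TDP-43 expression induced in galactose, inoculum OD600=0.02 after raffinose pregrowth to mid-log. Read-out BacTiter-Glo luminescence at 24 hr, 30 deg C; inhibition of toxicity seen as signal increase.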
Potency is the fitted concentration of half-maximal effect; tags give direction and shape of the fitted curve.

Compound | Potency | growth rescue (activation)
CCOc1ccc(C(=O)Nc2cccc(SC)c2)cc1 | inconclusive: 3.98 µM [activator, partial curve] | 
O=C(OCC(=O)N1CCCc2ccccc21)c1ccccc1[N+](=O)[O-] | active: 35.5 µM | 
Cc1sc2ncn(CC(=O)N3CCN(c4ccc(F)cc4)CC3)c(=O)c2c1S(=O)(=O)N1CCC(C)CC1 | inactive | 
O=[N+]([O-])c1ccc2oc(C(O)c3cccc(Cl)c3)cc2c1 (stereo not given) | inconclusive: 14.1 µM [activator, single point] | 
COC(=O)C[C@H]1CC[C@@H](NS(=O)(=O)c2ccc(C)cc2)[C@@H](CO)O1 | inconclusive: 3.98 µM [activator, single point] | 
Cc1cc(Cl)c2oc(C(=O)N(C)Cc3ccon3)c(C)c2c1 | inconclusive: 25.1 µM [activator, single point] | 
O=C(Cc1ccccc1[N+](=O)[O-])N1CCN(c2ccc(F)cc2)CC1 | inconclusive: 14.1 µM [activator, single point] | 
COc1ccccc1N(O)C1CC(=O)N(c2ccc(F)cc2)C1=O (stereo not given) | inconclusive: 28.2 µM [activator, partial curve, poor fit] | 
Cc1cc[n+](CC(=O)c2ccc(NC(=O)c3ccccc3)cc2)c2ccccc12 | inactive | 
O=C(O)c1ccccc1C(=O)N1CCN(C(=O)c2ccccc2Cl)CC1 | inconclusive: 3.55 µM [activator, full curve, poor fit] | 
CCCn1c(SCc2nc(-c3ccc(OC)c(OC)c3)no2)nnc1-c1ccccc1 | inconclusive: 20 µM [activator, partial curve] | 
C=CCNc1sc(C(=O)C2CC2)c(N)c1C#N | inconclusive: 12.6 µM [activator, partial curve] | 
CC(=O)Nc1ccc(NC(=O)c2csc([C@@H]3O[C@H](CO)[C@H](O)[C@H](O)[C@H]3O)n2)cc1 | inconclusive: 10 µM [activator, partial curve] | 
COc1ccc(Nc2ncnc3sc(C)cc23)cc1 | inconclusive: 12.6 µM [activator, partial curve] | 
O=C(NCc1cccc(Cl)c1)c1ccc2ccccc2n1 | inconclusive: 17.8 µM [activator, single point] | 
O=C(Nc1ccc2nc(SCC(=O)N3CCc4ccccc43)sc2c1)c1ccc(F)cc1 | inactive | 
COC(=O)c1ccsc1NC(=O)c1ccco1 | inconclusive: 12.6 µM [activator, partial curve] | 
CCCCC(=O)N1CCN(c2nc3ccc(Cl)cc3s2)CC1 | inconclusive: 14.1 µM [activator, single point] | 
CN(Cc1ccccc1)S(=O)(=O)c1ccc(-c2cnc(C3CC3)o2)cc1 | inconclusive: 5.62 µM [activator, single point] | 
CC1CCc2nn(CC(=O)Nc3ccccc3Cl)cc2C1 (stereo not given) |  | inconclusive: 32.7% [activator] [at 9.22 µM]
CCOc1ccc(NC(=O)NCCc2c(C)nn(C)c2C)cc1 | inactive | 
Oc1cccc2ccc(/C=C/c3cccs3)nc12 | inconclusive: 22.4 µM [activator, single point] | 
Cc1ccc(N2C(=O)CCSC23C(=O)N(Cc2ccccc2)c2ccccc23)cc1F (stereo not given) | inconclusive: 35.5 µM [activator, single point] | 
Cc1cc(C)cc(NS(=O)(=O)c2ccc3[nH]cc(C(=O)N(C)Cc4ccccc4)c(=O)c3c2)c1 | inconclusive: 10 µM [activator, partial curve] | 

Compound | Potency | growth rescue (activation)
CC(=O)c1cccc(NC(=O)C2CCCN2S(=O)(=O)c2cccc3nsnc23)c1 (stereo not given) | inconclusive: 35.5 µM [activator, partial curve] | 
Cc1ccc(CNC(=O)Cn2c(=O)n(-c3ccc(Cl)cc3)c(=O)c3c(C)c(C)sc32)cc1 | inactive | 
Cc1cc(NC(=O)C(C)SCC(=O)OCc2c(Cl)cccc2Cl)no1 (stereo not given) | inconclusive: 12.6 µM [activator, partial curve] | 
S=C(NCCc1ccccc1)NC1CCC(NC(=S)NCCc2ccccc2)CC1 (stereo not given) | inactive | 
CCOc1ccccc1NC(=O)CN1C(=O)CC(c2ccc(OC)c(OC)c2)Sc2ccccc21 (stereo not given) | inconclusive: 25.1 µM [activator, single point] | 
Cc1ccc(-c2nnc(C3CCN(S(=O)(=O)c4ccc(C)c(C)c4)CC3)o2)cc1 | inconclusive: 1.26 µM [activator, full curve] | 
O=C(CCSc1ccccc1)NCCSCc1ccco1 | inconclusive: 15.8 µM [activator, partial curve] | 
COc1ccc(C(=O)NNC(=S)NC(=O)/C=C/c2cccs2)cc1 | inconclusive: 22.4 µM [activator, single point] | 
C=CCOc1ccc(/C=C2\N=C(C)OC2=O)cc1OC | inactive | 
COC(=O)C1CC(=O)N(c2ccc(OCc3ccccc3Cl)cc2)C1 (stereo not given) | inconclusive: 14.1 µM [activator, single point] | 
COc1cccc(C(=O)Nc2cccc3ccccc23)c1OC | inconclusive: 3.16 µM [activator, single point] | 
COc1cc(C(=O)NNC(=S)NC(=O)/C=C/c2ccccc2)cc(OC)c1OC | inconclusive: 20 µM [activator, partial curve] | 
CCOc1ccc(OCCSc2nnnn2C2CCCCC2)cc1 | inconclusive: 35.5 µM [activator, partial curve, poor fit] | 
CCOc1ccc(NC(=O)c2ccc3c(c2)N(C)CCS3)cc1 | inconclusive: 0.355 µM [activator, full curve, poor fit] | 
COc1ccc(NC(=O)c2cccn2-c2nnc(N3CCCCC3)s2)cc1Cl | inconclusive: 35.5 µM [activator, single point] | 
COc1ccc(C)cc1NC(=O)COC(=O)c1ccc([N+](=O)[O-])o1 | active: 11.2 µM | 
Oc1cccc(-c2nc3ccc4ccccc4c3c3c2CCC3)c1 | inconclusive: 35.5 µM [activator, single point] | 
COc1ccc(S(=O)(=O)NC(=O)C2(C)CCN2C(=O)Cc2cc(C)cc(C)c2)cc1OC (stereo not given) | inconclusive: 1.41 µM [activator, partial curve] | 
Cc1ccc(-c2nonc2NC(=O)c2ccco2)cc1 | active: 25.1 µM | 
C=CCC1c2cccc(C(=O)O)c2C(=O)N1c1cccc(OC)c1 (stereo not given) | inconclusive: 31.6 µM [activator, single point] | 
Cc1ccc(CSc2nc3c([nH]c4ccccc43)c(=O)n2C)cc1 | inactive | 
COc1cc(Nc2ncc3c(n2)CCN(Cc2cc(Br)cs2)C3)cc(OC)c1 | inconclusive: 12.6 µM [activator, single point] | 
COC(=O)c1ccccc1NC(=O)c1ccc2c(c1)CCN2S(C)(=O)=O | inactive | 
COC(=O)c1cc(C(=O)c2ccc(C(C)(C)C)cc2)c[nH]1 | inconclusive: 35.5 µM [activator, single point] | 

Compound | Potency | growth rescue (activation)
Cc1ccc(C)c(CC(=O)N2CCCC(c3cc(C(=O)Nc4ccc5c(c4)OCO5)no3)C2)c1 (stereo not given) | inconclusive: 6.31 µM [activator, partial curve] | 
COc1ccccc1C(=O)NNC(=O)CCCN1C(=O)/C(=C/c2cccs2)SC1=S | inactive | 
COc1ccccc1NC(=O)CSc1nc2ccccc2c2nc(-c3ccccc3)nn12 | inconclusive: 6.31 µM [activator, single point] | 
CCCn1nc(C(=O)NNC(=O)c2ccc(C)c(C)c2)c2ccccc2c1=O | inactive | 
COc1cccc(C(=O)c2cn(CC(=O)NCc3ccccc3)c3nc(C)ccc3c2=O)c1 | inactive | 
COc1ccc(OC)c(S(=O)(=O)NCc2cccn2Cc2cccc(C)c2)c1 | inconclusive: 35.5 µM [activator, partial curve, poor fit] | 
CC(C)COc1ccc(CNC(=S)Nc2ccccc2)cc1Cl |  | inconclusive: 32% [activator]
CC(C)(C#N)Cc1cc(CC(C)(C)C#N)cc(C(C)(C)C)c1 | inactive | 
O=C(Nc1ccccc1)N1CCN(c2ccc(F)cc2)CC1 | inactive | 
O=C(NNc1nc2ccccc2s1)c1ccc(F)cc1 | inconclusive: 17.8 µM [activator, single point] | 
CCN1C(=O)c2ccccc2S(=O)c2ccc(C(=O)N3CCN(c4cccc(C)c4)C(C)C3)cc21 (stereo not given) | inactive | 
O=C1c2cccc(OCc3ccc(F)cc3)c2CCN1Cc1ccccc1 | inconclusive: 35.5 µM [activator, partial curve] | 
COc1cc(/C=C/C(=O)OCC(=O)N2CCCc3ccccc32)ccc1O | inconclusive: 11.2 µM [activator, partial curve] | 
COc1ccccc1CNC(=O)c1ccc(C)s1 | inconclusive: 12.6 µM [activator, partial curve] | 
Cc1nn(C)c2c1c(C(F)(F)F)cc(=O)n2C(C)C(=O)NCc1ccc(Cl)cc1 (stereo not given) | inactive | 
Cc1cccc(CNC(=O)CSCc2cnn(-c3ccccc3)c2-n2cccc2)c1 | inactive | 
O=C(CCc1ccccc1)NC(=S)Nc1ccccc1[N+](=O)[O-] | active: 12.6 µM | 
COc1ccccc1N1CCN(c2csc3ccc(Cl)cc3c2=O)CC1 |  | inconclusive: -70.5% [activator]
Cc1ccc(Cn2c(-c3ccccc3)nc3ccccc32)cc1 | active: 25.1 µM | 
Cc1ccc(-c2nc3ccccc3n3c(-c4ccccc4)c4c(=O)n(C)c(=O)n(C)c4c23)cc1 | inactive | 
COc1ccc(Cn2nnnc2C(C(C)C)N2CCc3ccccc32)cc1 (stereo not given) | inconclusive: 25.1 µM [activator, single point] | 
O=C(COc1ccc2cc(Br)ccc2c1Br)N1CCOCC1 | inconclusive: 25.1 µM [activator, single point] | 
